{
  "source": "the BET-seq Pho4 binding data (Le et al. 2018)",
  "note": "This is one part of the list. These are noisy estimates, calculated here from bound and input reads.",
  "data": [
    {"target": "T1, Pho4 (S. cerevisiae) (UniProt P07270)", "T1 sequence": "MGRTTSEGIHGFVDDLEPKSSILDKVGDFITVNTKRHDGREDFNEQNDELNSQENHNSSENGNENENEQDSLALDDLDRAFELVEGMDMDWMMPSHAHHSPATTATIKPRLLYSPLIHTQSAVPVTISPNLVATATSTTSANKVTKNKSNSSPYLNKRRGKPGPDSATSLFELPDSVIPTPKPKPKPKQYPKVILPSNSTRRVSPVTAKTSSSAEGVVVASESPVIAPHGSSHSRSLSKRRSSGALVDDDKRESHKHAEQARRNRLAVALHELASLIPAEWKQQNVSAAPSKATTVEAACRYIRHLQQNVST", "assay": "relative binding free energy (BET-seq); higher = weaker binding", "details": "reference: library average", "units": {"relative binding free energy": "kcal/mol"}, "values": [
      {"sequence": "AGGGCCACGTGTACTG", "relative binding free energy": 0.02},
      {"sequence": "TGGTTCACGTGGGCTA", "relative binding free energy": 0.02},
      {"sequence": "AGGGGCACGTGCAGTG", "relative binding free energy": -0.11},
      {"sequence": "TTGTGCACGTGAGTAA", "relative binding free energy": 0.11},
      {"sequence": "GGTTACACGTGAATTA", "relative binding free energy": 0.31},
      {"sequence": "CTAGGCACGTGGTGAG", "relative binding free energy": -0.08},
      {"sequence": "TTGCTCACGTGTGAGT", "relative binding free energy": 0.19},
      {"sequence": "CGTATCACGTGGAGTT", "relative binding free energy": 0.09},
      {"sequence": "TGTTACACGTGGTAAA", "relative binding free energy": 0.16},
      {"sequence": "TTATGCACGTGATTCT", "relative binding free energy": 0.07},
      {"sequence": "GGAAGCACGTGATTGG", "relative binding free energy": 0.01},
      {"sequence": "AATTGCACGTGTTAAT", "relative binding free energy": -0.04},
      {"sequence": "TATAGCACGTGTGGCG", "relative binding free energy": 0.03},
      {"sequence": "GATGACACGTGTCGGG", "relative binding free energy": 0.13},
      {"sequence": "AATTACACGTGAAGTT", "relative binding free energy": 0.38},
      {"sequence": "CAGTGCACGTGTTGAG", "relative binding free energy": -0.06},
      {"sequence": "GACGTCACGTGGTGGT", "relative binding free energy": 0.03},
      {"sequence": "TTTCTCACGTGGAGTG", "relative binding free energy": 0.19},
      {"sequence": "CTGGTCACGTGTGCAG", "relative binding free energy": 0.02},
      {"sequence": "TTAGACACGTGAAAGG", "relative binding free energy": 0.36},
      {"sequence": "TGCGTCACGTGTTAAG", "relative binding free energy": 0.07},
      {"sequence": "GTCATCACGTGGAGTG", "relative binding free energy": 0.13},
      {"sequence": "GGTTGCACGTGTTACG", "relative binding free energy": 0.13},
      {"sequence": "ATATGCACGTGTTTCG", "relative binding free energy": -0.02},
      {"sequence": "TTAGGCACGTGCGAGG", "relative binding free energy": -0.12},
      {"sequence": "GAATGCACGTGTGGTA", "relative binding free energy": 0.01},
      {"sequence": "GTCTTCACGTGAGTAT", "relative binding free energy": 0.34},
      {"sequence": "GTGGTCACGTGGTAGC", "relative binding free energy": 0.13},
      {"sequence": "ACCGGCACGTGTGTGT", "relative binding free energy": -0.12},
      {"sequence": "AGAGTCACGTGTACTG", "relative binding free energy": 0.17},
      {"sequence": "AGCGGCACGTGTGGCT", "relative binding free energy": -0.11},
      {"sequence": "AATTTCACGTGTGTTG", "relative binding free energy": 0.34},
      {"sequence": "CGTGGCACGTGATTGT", "relative binding free energy": -0.07},
      {"sequence": "TGGGCCACGTGGTGAG", "relative binding free energy": -0.15},
      {"sequence": "ATTTTCACGTGTTTAT", "relative binding free energy": 0.28},
      {"sequence": "CTGGTCACGTGGGCAG", "relative binding free energy": -0.03},
      {"sequence": "ATATTCACGTGTGCAG", "relative binding free energy": 0.08},
      {"sequence": "CATAGCACGTGTGTGC", "relative binding free energy": 0.05},
      {"sequence": "TGAAACACGTGGTAGG", "relative binding free energy": -0.05},
      {"sequence": "CGGATCACGTGGGTTG", "relative binding free energy": -0.1},
      {"sequence": "AGTTGCACGTGTAGTG", "relative binding free energy": 0.03},
      {"sequence": "ATATTCACGTGAAGGT", "relative binding free energy": 0.29},
      {"sequence": "GCGCGCACGTGGGGTG", "relative binding free energy": -0.36},
      {"sequence": "GATTTCACGTGTATGA", "relative binding free energy": 0.3},
      {"sequence": "TGGTTCACGTGAACGG", "relative binding free energy": 0.35},
      {"sequence": "TTTCTCACGTGCGTTT", "relative binding free energy": 0.21},
      {"sequence": "GGTCCCACGTGGGCGT", "relative binding free energy": -0.17},
      {"sequence": "TTTTACACGTGCTGGC", "relative binding free energy": 0.14},
      {"sequence": "AGAGTCACGTGATTTT", "relative binding free energy": 0.32},
      {"sequence": "TACTTCACGTGGGAGT", "relative binding free energy": 0.06},
      {"sequence": "AGTTTCACGTGTCGTC", "relative binding free energy": 0.22},
      {"sequence": "CCAGGCACGTGGGAGG", "relative binding free energy": -0.16},
      {"sequence": "GGCGGCACGTGTGAGT", "relative binding free energy": 0.03},
      {"sequence": "TTAGGCACGTGGAGGA", "relative binding free energy": 0.05},
      {"sequence": "TTAGACACGTGTGTGT", "relative binding free energy": -0.04},
      {"sequence": "TTGCTCACGTGGGAAA", "relative binding free energy": 0.2},
      {"sequence": "GGTATCACGTGTTTGC", "relative binding free energy": 0.25},
      {"sequence": "GATTGCACGTGGTGAG", "relative binding free energy": -0.03},
      {"sequence": "ATGTTCACGTGGCAAT", "relative binding free energy": 0.34},
      {"sequence": "TTTTCCACGTGTGTTC", "relative binding free energy": 0.26},
      {"sequence": "GGACGCACGTGGTTTA", "relative binding free energy": -0.07},
      {"sequence": "GTGTACACGTGAATGT", "relative binding free energy": 0.34},
      {"sequence": "TGGGGCACGTGAAAAT", "relative binding free energy": 0.35},
      {"sequence": "TATGCCACGTGGAGGG", "relative binding free energy": -0.06},
      {"sequence": "ATCAACACGTGGGTTA", "relative binding free energy": -0.07},
      {"sequence": "TGAGGCACGTGGGATC", "relative binding free energy": -0.11},
      {"sequence": "TGTCGCACGTGTTGTT", "relative binding free energy": -0.1},
      {"sequence": "TGATGCACGTGGTCGA", "relative binding free energy": -0.08},
      {"sequence": "TTCAGCACGTGGTGCG", "relative binding free energy": -0.16},
      {"sequence": "TATGACACGTGGTTGC", "relative binding free energy": -0.03},
      {"sequence": "CTTGTCACGTGGTAGC", "relative binding free energy": 0.09},
      {"sequence": "TAGGCCACGTGTGGAT", "relative binding free energy": 0.01},
      {"sequence": "AGGTGCACGTGCATTT", "relative binding free energy": -0.03},
      {"sequence": "GCGTGCACGTGTCGGG", "relative binding free energy": -0.02},
      {"sequence": "TGGTACACGTGTCAGG", "relative binding free energy": 0},
      {"sequence": "AGGGGCACGTGGTTAT", "relative binding free energy": -0.25},
      {"sequence": "ACGTACACGTGTAGTT", "relative binding free energy": 0.07},
      {"sequence": "ATCGTCACGTGTACGT", "relative binding free energy": 0.1},
      {"sequence": "TAGTTCACGTGCGGAT", "relative binding free energy": 0.24},
      {"sequence": "GTTGGCACGTGTTTGC", "relative binding free energy": 0.06},
      {"sequence": "ATATGCACGTGGTGGA", "relative binding free energy": -0.1},
      {"sequence": "AGGGTCACGTGCGGAT", "relative binding free energy": 0.02},
      {"sequence": "GGAAGCACGTGCCGGG", "relative binding free energy": -0.1},
      {"sequence": "GAGTACACGTGTAGAT", "relative binding free energy": 0.35},
      {"sequence": "AGAATCACGTGGAGTT", "relative binding free energy": 0.27},
      {"sequence": "CTAGGCACGTGTTGGT", "relative binding free energy": -0.02},
      {"sequence": "CAGGACACGTGGGGTG", "relative binding free energy": -0.11},
      {"sequence": "TGCCTCACGTGTGGTG", "relative binding free energy": 0.15},
      {"sequence": "TAGTACACGTGTTGCT", "relative binding free energy": -0.04},
      {"sequence": "GGTGACACGTGGTAAA", "relative binding free energy": -0.03},
      {"sequence": "GAATTCACGTGAGTGG", "relative binding free energy": 0.46},
      {"sequence": "TAAGGCACGTGAGGAA", "relative binding free energy": 0.17},
      {"sequence": "GGTTTCACGTGATTAC", "relative binding free energy": 0.39},
      {"sequence": "CTGTTCACGTGATGTT", "relative binding free energy": 0.22},
      {"sequence": "TAGTTCACGTGTTCTT", "relative binding free energy": 0.18},
      {"sequence": "TAAGACACGTGTATGA", "relative binding free energy": 0.09},
      {"sequence": "TATTACACGTGAATGT", "relative binding free energy": 0.25},
      {"sequence": "AATGTCACGTGTCAAG", "relative binding free energy": 0.16},
      {"sequence": "TGTTACACGTGTCTTT", "relative binding free energy": 0.08},
      {"sequence": "AATTTCACGTGATAGT", "relative binding free energy": 0.28},
      {"sequence": "AGTGACACGTGGGTTC", "relative binding free energy": -0.23},
      {"sequence": "AGTCACACGTGGAGGT", "relative binding free energy": 0.07},
      {"sequence": "TGGGGCACGTGTATTT", "relative binding free energy": -0.11},
      {"sequence": "ATGATCACGTGGGAGA", "relative binding free energy": 0.13},
      {"sequence": "GTGGTCACGTGCGGAC", "relative binding free energy": 0.11},
      {"sequence": "GGGGGCACGTGAGATC", "relative binding free energy": 0.07},
      {"sequence": "GGATGCACGTGTCGGG", "relative binding free energy": 0.04},
      {"sequence": "TGGCTCACGTGGTGAA", "relative binding free energy": 0.2},
      {"sequence": "GGGGTCACGTGCGGCC", "relative binding free energy": 0.13},
      {"sequence": "TGGTCCACGTGGTATT", "relative binding free energy": -0.09},
      {"sequence": "AGCGTCACGTGGAGTA", "relative binding free energy": 0.11},
      {"sequence": "CGGGCCACGTGGCGGG", "relative binding free energy": -0.25},
      {"sequence": "TAGTGCACGTGGTGGG", "relative binding free energy": -0.06},
      {"sequence": "CATTTCACGTGTGTCG", "relative binding free energy": 0.31},
      {"sequence": "CGGTGCACGTGGGGTT", "relative binding free energy": -0.06}
    ]}
  ]
}
